# Results from PubChem BioAssay AID1347165 (National Center for Advancing Translational Sciences (NCATS), 2019).
# Hit rate of the full screen: of about 220,000 compounds, about 5,700 (2.6%) were called active. Inconclusive means that the source gave no clear call. Such entries were picked first, then a sample of the others. Calls come from the whole dose curve; as a rule, active = well fitted inhibition curve with a large enough effect; inconclusive = small, poorly fitted or top-dose-only effect; inactive = no such curve, though single readings can be large or run the other way. A potency beside an inconclusive call is a rough fit, not a confirmed value.
# Target: Lysine-specific demethylase 5B (Homo sapiens) (UniProt Q9UGL1)
# Chain of UniProt Q9UGL1 (Q9UGL1 whole entry, looked up): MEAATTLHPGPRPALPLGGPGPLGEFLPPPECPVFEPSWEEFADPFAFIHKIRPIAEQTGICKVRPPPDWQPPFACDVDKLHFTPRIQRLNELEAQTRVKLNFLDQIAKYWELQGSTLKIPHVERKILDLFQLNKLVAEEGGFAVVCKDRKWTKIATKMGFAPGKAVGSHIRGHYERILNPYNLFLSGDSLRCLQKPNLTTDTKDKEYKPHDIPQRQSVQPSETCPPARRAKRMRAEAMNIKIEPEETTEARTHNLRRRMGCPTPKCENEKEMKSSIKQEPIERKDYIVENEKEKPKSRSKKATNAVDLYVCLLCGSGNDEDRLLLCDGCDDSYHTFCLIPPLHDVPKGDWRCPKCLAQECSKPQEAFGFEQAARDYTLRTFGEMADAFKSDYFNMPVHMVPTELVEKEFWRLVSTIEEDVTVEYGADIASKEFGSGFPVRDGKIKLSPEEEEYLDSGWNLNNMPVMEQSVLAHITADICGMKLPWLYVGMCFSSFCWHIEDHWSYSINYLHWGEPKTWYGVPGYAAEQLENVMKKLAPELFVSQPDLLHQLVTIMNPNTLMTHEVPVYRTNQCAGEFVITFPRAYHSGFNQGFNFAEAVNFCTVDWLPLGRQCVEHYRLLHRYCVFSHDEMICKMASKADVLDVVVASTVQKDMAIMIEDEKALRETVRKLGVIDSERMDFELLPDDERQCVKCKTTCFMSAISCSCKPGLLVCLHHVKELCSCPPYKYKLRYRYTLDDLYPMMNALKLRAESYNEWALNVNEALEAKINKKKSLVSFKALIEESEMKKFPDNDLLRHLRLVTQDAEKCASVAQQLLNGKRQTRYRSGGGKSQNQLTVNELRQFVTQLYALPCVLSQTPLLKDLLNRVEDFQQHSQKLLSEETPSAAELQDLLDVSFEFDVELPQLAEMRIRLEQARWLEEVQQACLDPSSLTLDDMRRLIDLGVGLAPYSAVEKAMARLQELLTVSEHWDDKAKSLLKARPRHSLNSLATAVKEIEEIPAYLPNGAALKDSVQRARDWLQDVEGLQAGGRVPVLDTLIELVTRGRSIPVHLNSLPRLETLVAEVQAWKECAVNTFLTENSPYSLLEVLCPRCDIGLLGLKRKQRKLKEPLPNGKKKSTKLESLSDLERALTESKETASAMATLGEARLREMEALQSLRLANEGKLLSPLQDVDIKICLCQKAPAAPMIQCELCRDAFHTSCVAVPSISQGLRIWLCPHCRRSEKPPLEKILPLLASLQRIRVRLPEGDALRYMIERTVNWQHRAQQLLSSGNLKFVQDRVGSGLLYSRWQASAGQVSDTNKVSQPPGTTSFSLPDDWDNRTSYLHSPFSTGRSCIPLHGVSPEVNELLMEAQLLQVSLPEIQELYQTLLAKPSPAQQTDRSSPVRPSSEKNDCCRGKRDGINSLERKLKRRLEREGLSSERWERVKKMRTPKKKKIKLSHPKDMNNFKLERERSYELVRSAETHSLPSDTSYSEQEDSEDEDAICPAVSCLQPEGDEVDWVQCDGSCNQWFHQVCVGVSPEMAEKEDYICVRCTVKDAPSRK
# Assay: Primary screen for KDM5B Histone Demethylases FDH-coupled qHTS; note: nearly all actives have a fitted effect of over 70% in size
# Conditions: FDH-coupled NADH fluorescence (FDH is formaldehyde dehydrogenase); series mostly up to 57.7 µM
# Outline: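 KDM5BΔAP (200 nM final) in 50 mM HEPES pH 7.5, 0.01% Tween-20 was preincubated 10 min at RT with compound over a concentration range. Substrate mix (H3K4me3 12.5 µM, α-KG 25 µM, Fe²⁺, ascorbate, NAD⁺, FDH) was added, and NADH fluorescence change over 30 min gave dose-response curves.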
# Potency is the fitted concentration of half-maximal effect; tags give direction and shape of the fitted curve.
row,SMILES,Potency
1,COc1cc(NC(=O)c2cc(C)nc3c2c(C)nn3-c2ccccc2Cl)cc(OC)c1,"inconclusive: 7.08 µM [inhibitor, partial curve, poor fit]"
2,c1cncc(-c2ccnc(NCCCn3nccc3C3CC3)n2)c1,active: 28.2 µM
3,Cc1ccc(C(=O)/C=C/c2ccc(Br)cc2F)o1,"inconclusive: 28.2 µM [inhibitor, partial curve, poor fit]"
4,Cc1nc2ccc(C(=O)N3CCN(C(=O)C4CC4)CC3)cc2nc1C,inactive
5,COc1cc(-n2c(C)nc3cccnc32)c(Cl)cc1C(=O)O,"inconclusive: 28.2 µM [inhibitor, single point]"
6,CN(C)Cc1cn(C[C@H]2C[C@@H](NC(=O)Nc3cccnc3)[C@H](O)[C@@H]2O)nn1,"inconclusive: 31.6 µM [inhibitor, partial curve, poor fit]"
7,COc1nccnc1NC1CCN(C(=O)c2ccc3nc[nH]c3c2)CC1,active: 28.2 µM
8,CS(=O)(=O)Cc1ccc(C(=O)NCC2(N3CCCCC3)CCCCC2)cc1,"inconclusive: 14.1 µM [inhibitor, partial curve, poor fit]"
9,O=C(C1=C(O)C(=O)N(c2nccs2)C1c1ccccc1)c1cc2ccccc2o1 (stereo unspecified),"inconclusive: 17.8 µM [inhibitor, partial curve, poor fit]"
10,Fc1ccc(-c2noc3ncnc(NCC4CCN(Cc5ccc(Cl)cc5)CC4)c23)cc1,"inconclusive: 2.82 µM [inhibitor, full curve, poor fit]"
11,CNC(=O)c1ccc(NC(=O)CSc2ncc(-c3ccc(F)cc3)o2)cc1,inactive
12,Cn1nccc1C(=O)N1C[C@@H](COCC2CC2)[C@H](c2ccccn2)C1,inactive
13,O=C(Nc1cc(Cl)ccc1-n1cncn1)C1CC(=O)N(c2ccc3c(c2)OCCO3)C1 (stereo unspecified),inactive
14,CCOC(=O)c1cc(-c2ccc(F)cc2)n(CCC(=O)NCCc2ccc(C)cc2)c1C,"inconclusive: 15.8 µM [inhibitor, partial curve, poor fit]"
15,Cc1ccc(CN(Cc2ccco2)C(=O)COc2ccc(Cl)cc2)o1,"inconclusive: 17.8 µM [inhibitor, partial curve, poor fit]"
16,NC(=O)CN1C(=O)CO[C@H]2CN(Cc3ccc4c(c3)OCO4)C[C@H]21,inactive
17,CSc1nc(C)nc(C2CC2)c1C#N,"inconclusive: 39.8 µM [inhibitor, single point]"
18,O=C([C@H]1C[C@H](Oc2cccnc2)CN1C(=O)NC1CCCC1)N1CCOCC1,inactive
19,COc1ccc(CCNC(=O)c2cnc3sc(N4CCCC4)nn3c2=O)cc1OC,"inconclusive: 35.5 µM [inhibitor, partial curve, poor fit]"
20,CCN1c2cc(C(=O)NCc3cc(F)ccc3F)ccc2C(=O)N2CCCCC21 (stereo unspecified),"inconclusive: 22.4 µM [inhibitor, partial curve, poor fit]"
21,Cc1cncc(C(=O)N2CCOc3c(O)cc(-c4nc5ccccc5s4)cc3C2)c1,"inconclusive: 25.1 µM [inhibitor, single point]"
22,CC1Oc2ccc(NC(=O)c3ccc(Cl)cc3)cc2CN(Cc2cc(F)cc(F)c2)C1=O (stereo unspecified),"inconclusive: 31.6 µM [inhibitor, single point]"

row,SMILES,Potency
1,CN(C(=O)c1cc2c(s1)-c1ccc(Cl)cc1SC2)c1cccc(C(F)(F)F)c1,"inconclusive: 35.5 µM [inhibitor, partial curve, poor fit]"
2,O=[S+]1([O-])NC2(CCN(Cc3ccoc3)CC2)COc2ccccc21,inactive
3,CN1c2cc(C(=O)NCc3cccc(Cl)c3)ccc2C(=O)N2CCCCC21 (stereo unspecified),"inconclusive: 28.2 µM [inhibitor, partial curve, poor fit]"
4,N#C/C(=C/C1=Cc2cc(Cl)ccc2OC1)c1nc2ccccc2[nH]1,"inconclusive: 25.1 µM [inhibitor, partial curve, poor fit]"
5,CCCCNC(=O)Cc1csc2nc(C)c(-c3cc(C)n(-c4cccc(C)c4)n3)c(=O)n12,"inconclusive: 15.8 µM [inhibitor, partial curve, poor fit]"
6,Cc1cccc(NCc2ccccc2)c1,inactive
7,O=C(Nc1cccc(Cl)c1)C1CCN(c2cnc3ccccc3n2)CC1,inactive
8,COCCC(=O)N1CCC(Oc2nccnc2N2CCc3ccccc32)C1 (stereo unspecified),"inconclusive: 12.6 µM [inhibitor, partial curve, poor fit]"
9,O=C(CC(F)(F)F)N1CCC(N2C(=O)C3(CCCC3)C2c2ccccc2)CC1 (stereo unspecified),inactive
10,CC(C)Sc1ncc(Cl)c(C(=O)Nc2ccc(S(=O)(=O)N(C)c3ccccc3)cc2)n1,"inconclusive: 35.5 µM [inhibitor, single point]"
11,COc1ccc(-c2cc(C(F)(F)F)nc(S(=O)(=O)CCC(=O)Nc3ccc(C)cc3)n2)cc1,"inconclusive: 25.1 µM [inhibitor, partial curve, poor fit]"
12,Cn1ncc2c(Nc3cccc(F)c3)ncnc21,"inconclusive: 1.78 µM [inhibitor, partial curve, poor fit]"
13,COc1ccc(CC(=O)N2Cc3ccccc3CC23CCCN(C(=O)CCN)C3)cc1 (stereo unspecified),"inconclusive: 39.8 µM [inhibitor, partial curve, poor fit]"
14,Cc1oc2cc(OCCN3CCN(CCO)CC3)ccc2c(=O)c1-c1ccccc1,inactive
15,CCc1ccccc1NC(=O)Nc1cccc(-c2ccc(N3CCOCC3)nn2)c1,inactive
16,O=C(NCCO)c1cc2c([nH]c3ccccc32)c(-c2ccc(F)cc2)n1,"inconclusive: 25.1 µM [inhibitor, partial curve, poor fit]"
17,CN(CCOc1ccc(Cl)cc1)c1ccc(S(=O)(=O)N2CCCCC2)cn1,"inconclusive: 25.1 µM [inhibitor, single point]"
18,CN(C)C[C@@H]1CN(C2CCOCC2)C[C@H]1NC(=O)c1nccc2ccccc12,"inconclusive: 15.8 µM [inhibitor, single point]"
19,N#Cc1cccc(C2CCN(C(=O)C3CCN(C(=O)C4CC4)CC3)CC2)c1,inactive
20,O=C(CSc1n[nH]c(-c2ccncc2)n1)Nc1cccc(C(F)(F)F)c1,inactive
21,COCCCN1CCC(CNc2nccc(-c3cnn(C)c3)n2)C1 (stereo unspecified),"inconclusive: 25.1 µM [inhibitor, partial curve, poor fit]"
22,O=C(C1CCN(c2cnc3nccnc3c2)CC1)N1CCCCCC1,"inconclusive: 11.2 µM [inhibitor, partial curve]"

row,SMILES,Potency
1,COc1ccc2c(c1)c1c(c(=O)n(-c3ccccc3)c(=O)n1CC(=O)Nc1ccc(C)c(C)c1)n2C,"inconclusive: 28.2 µM [inhibitor, single point]"
2,COCC1CN(C)CC12CCN(S(=O)(=O)c1cccc(OC)c1)CC2 (stereo unspecified),"inconclusive: 28.2 µM [inhibitor, partial curve]"
3,Cc1ccc2c(c1)cc1c(=O)n(CC(=O)N3CCCCC3)nc(C)n12,"inconclusive: 1.41 µM [inhibitor, partial curve, poor fit]"
4,CN(C)S(=O)(=O)c1cccc(NC(=O)CSc2cccc3cccc(Cl)c23)c1,inactive
5,O=C(OCC(=O)c1c[nH]c2ccccc12)c1cc2ccccc2s1,"inconclusive: 39.8 µM [inhibitor, single point]"
6,CCc1ccc(C(=O)c2cn(CC(=O)Nc3ccc(C)c(C)c3)c3ccccc3c2=O)cc1,"inconclusive: 1.41 µM [inhibitor, full curve, poor fit]"
7,COc1ccc2nc([C@H]3CCN(C(C)C)C3)[nH]c2c1,active: 31.6 µM
8,O=C1/C(=C/c2ccccc2)COc2ccccc21,"inconclusive: 31.6 µM [inhibitor, single point]"
9,COc1cc(OC)cc(-c2nc(C3CC(=O)N(c4ccc(Cl)cc4)C3)no2)c1 (stereo unspecified),"inconclusive: 25.1 µM [inhibitor, single point]"
10,CC(C)(CNc1ccc(-c2nc(C3CC3)no2)cn1)N1CCOCC1,"inconclusive: 11.2 µM [inhibitor, partial curve, poor fit]"
11,CCOc1cc(/C=C/C(=O)OC(C)C(C)=O)cc(Cl)c1OC (stereo unspecified),"inconclusive: 39.8 µM [inhibitor, single point]"
12,O=C(Nc1cc(F)cc(F)c1)c1cnc2ccccc2n1,inactive
13,O=C(/C=C/c1ccccc1O)c1ccc2ccccc2c1,"inconclusive: 39.8 µM [inhibitor, single point]"
14,O=Cc1ccc(OCc2ccccc2)c(Cl)c1,"inconclusive: 39.8 µM [inhibitor, single point]"
15,Cc1ccc(CN2CCc3nc(N4CCN(C)CC4)ncc3C2)s1,"inconclusive: 22.4 µM [inhibitor, single point]"
16,Cc1nc(-c2ccc(C(C)N3CCCCC3)cc2)c(C#N)cc1C(=O)O (stereo unspecified),inactive
17,c1ccc(-c2noc(-c3ccn4c(CN5CCN(c6ccccc6)CC5)nnc4c3)n2)cc1,"inconclusive: 35.5 µM [inhibitor, partial curve, poor fit]"
18,Cc1cc(C)n(CCC(=O)N[C@@H]2CN(S(C)(=O)=O)C[C@H]2CN(C)C)n1,inactive
19,O=C(c1cccc(-n2cnnc2)c1)N1CCCCCC1c1cccc(F)c1 (stereo unspecified),"inconclusive: 31.6 µM [inhibitor, single point]"
20,CCOc1cc(S(=O)(=O)N2CCN(CCO)CC2)ccc1Cl,inactive
21,Cc1ccc(NC(=O)C2CCN(S(=O)(=O)c3c(C)noc3/C=C/c3ccco3)CC2)cc1C,"inconclusive: 15.8 µM [inhibitor, partial curve, poor fit]"
22,CC(C)NC(=O)N1CCC2(CC1)CN(Cc1ccncc1)Cc1ccccc1O2,"inconclusive: 79.4 µM [inhibitor, partial curve]"
